Test results as given in a collection of fitness landscapes (doi:10.1016/j.celrep.2020.107928).
The full ranking holds about 81,000 sequences; the median of “one-hybrid fitness for binding NBS DNA” is about -0.1, and the highest 2% start at about 0.36. This is one part of the list.

B1: Caulobacter ParB omega fusion; a variant is named by its letters at X, in order, B8GW30 (parent)
chain: MESVVVGEPGMSEGRRGLGRGLSALLGEVDAAPAQAPGEQLGGSREAPIEILQRNPDQPRRTFREEDLEDLSNSIREKGVLQPILVRPSPDTAGEYQIVAGERAWRAAQRAGLKTVPIMVRELDDLAVLEIGIIENVQRADLNVLEEALSYKVLMEKFERTQENIAQTIGKSXSHVANXMRLLXLPDEVQSYLVSGELTAXHARAIAAAADPVALAKQIIEGGLSVRETEALARKAPNLSAGKSKGGRPPRVKDTDTQALESDLSSVLGLDVSIDHRGSTGTLTITYATLEQLDDLCNRLTRGI

Variants of: B1
Assay: one-hybrid fitness for binding NBS DNA (the Noc-binding site; scaled: cognate 1, non-cognate 0); higher = stronger binding
Settings: with NBS DNA site
How it was run: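 Fitness is the rescaled log change in variant-to-wild-type read ratio, measured by Illumina sequencing of plasmids before and after bacterial one-hybrid selection. The scale puts cognate at 1 and non-cognate at 0. Selection of Caulobacter ParB libraries, four specificity codons randomised, took place in E. coli USO with a HIS3 reporter, site 19 bp from the promoter, over 48 hours at 37°C on M9-minus-histidine with 0.1 mM IPTG and 5 mM 3-AT.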

| Variant | one-hybrid fitness for binding NBS DNA |
| --- | --- |
| CKSS | ≤ 0.2 |
| NTVG | ≤ 0.2 |
| SSIR | ≤ 0.2 |
| VIKY | ≤ 0.2 |
| LWRG | ≤ 0.2 |
| ATIM | ≤ 0.2 |
| KDRC | ≤ 0.2 |
| CCKV | ≤ 0.2 |
| EANY | ≤ 0.2 |
| IRKQ | ≤ 0.2 |
| ACIG | ≤ 0.2 |
| MLNF | ≤ 0.2 |
| SHPS | ≤ 0.2 |
| WCCR | ≤ 0.2 |
| AGEN | ≤ 0.2 |
| KVMN | ≤ 0.2 |
| DSLY | ≤ 0.2 |
| NNKR | ≤ 0.2 |
| FRPW | ≤ 0.2 |
| LSRR | ≤ 0.2 |
| GHLN | ≤ 0.2 |
| QMWM | ≤ 0.2 |
| TGAG | ≤ 0.2 |
| VHFT | ≤ 0.2 |
| HVKT | ≤ 0.2 |
| NMYR | ≤ 0.2 |

| Variant | one-hybrid fitness for binding NBS DNA |
| --- | --- |
| TIGV | ≤ 0.2 |
| PARN | ≤ 0.2 |
| LMKL | ≤ 0.2 |
| PDMT | ≤ 0.2 |
| HQMR | ≤ 0.2 |
| KHLT | ≤ 0.2 |
| AIPS | ≤ 0.2 |
| IVRS | ≤ 0.2 |
| YAII | ≤ 0.2 |
| MRRL | ≤ 0.2 |
| KRNF | ≤ 0.2 |
| KIIC | ≤ 0.2 |
| RVRQ | ≤ 0.2 |
| AMFL | ≤ 0.2 |
| QRLP | ≤ 0.2 |
| MVPW | ≤ 0.2 |
| DTWR | ≤ 0.2 |
| HIMY | ≤ 0.2 |
| YAWL | ≤ 0.2 |
| NLAR | ≤ 0.2 |
| QGKI | ≤ 0.2 |
| MMMS | ≤ 0.2 |
| RMQG | ≤ 0.2 |
| VPSH | ≤ 0.2 |
| FVTT | ≤ 0.2 |
| PKPM | ≤ 0.2 |

| Variant | one-hybrid fitness for binding NBS DNA |
| --- | --- |
| TRDE | ≤ 0.2 |
| KQHS | ≤ 0.2 |
| EVHR | ≤ 0.2 |
| LHPD | ≤ 0.2 |
| PHQK | ≤ 0.2 |
| QQCD | ≤ 0.2 |
| YSNF | ≤ 0.2 |
| RDLA | ≤ 0.2 |
| RYPG | ≤ 0.2 |
| PDWL | ≤ 0.2 |
| YSKD | ≤ 0.2 |
| RGTT | ≤ 0.2 |
| QMVD | ≤ 0.2 |
| LPHF | ≤ 0.2 |
| GSQN | ≤ 0.2 |
| PALN | ≤ 0.2 |
| HEYG | ≤ 0.2 |
| RSYI | ≤ 0.2 |
| MTSS | ≤ 0.2 |
| CHWS | ≤ 0.2 |
| CLMR | ≤ 0.2 |
| DTIL | ≤ 0.2 |
| SVTN | ≤ 0.2 |
| YNCF | ≤ 0.2 |
| ANNN | ≤ 0.2 |
| KHAS | ≤ 0.2 |

| Variant | one-hybrid fitness for binding NBS DNA |
| --- | --- |
| YDHE | ≤ 0.2 |
| PCAP | ≤ 0.2 |
| TKST | ≤ 0.2 |
| AGYV | ≤ 0.2 |
| NHDQ | ≤ 0.2 |
| DVNP | ≤ 0.2 |
| RASY | ≤ 0.2 |
| QAKV | 0.393 |
| LFKV | ≤ 0.2 |
| YCER | ≤ 0.2 |
| RWRS | 0.234 |
| HAPL | ≤ 0.2 |
| PKDR | ≤ 0.2 |
| TTRF | ≤ 0.2 |
| TPLN | ≤ 0.2 |
| QPGT | ≤ 0.2 |
| LLPV | ≤ 0.2 |
| VCAF | ≤ 0.2 |
| NGTG | ≤ 0.2 |
| VRKN | ≤ 0.2 |
| LEFG | ≤ 0.2 |
| NMGD | ≤ 0.2 |
| SMKA | ≤ 0.2 |
| RCDW | ≤ 0.2 |
| QHDW | ≤ 0.2 |
| WYMG | ≤ 0.2 |

| Variant | one-hybrid fitness for binding NBS DNA |
| --- | --- |
| IHVR | ≤ 0.2 |
| MPFH | ≤ 0.2 |
| QSCK | ≤ 0.2 |
| VIYD | ≤ 0.2 |
| GMIG | ≤ 0.2 |
| YYVT | ≤ 0.2 |
| SYRN | ≤ 0.2 |
| PRHL | ≤ 0.2 |
| CDCG | ≤ 0.2 |
| HRNT | 0.255 |
| NMAT | ≤ 0.2 |
| NHRG | ≤ 0.2 |
| QAAE | ≤ 0.2 |
| MRTC | ≤ 0.2 |
| TWSL | ≤ 0.2 |
| CNDR | ≤ 0.2 |
| QFVT | ≤ 0.2 |
| PHNL | ≤ 0.2 |
| HKQM | ≤ 0.2 |
| INRT | ≤ 0.2 |
| EALT | ≤ 0.2 |
| ALSK | ≤ 0.2 |
| QQSE | ≤ 0.2 |
| SVGM | ≤ 0.2 |
| TGCR | ≤ 0.2 |
| FWYS | ≤ 0.2 |

| Variant | one-hybrid fitness for binding NBS DNA |
| --- | --- |
| HDHI | ≤ 0.2 |
| WHHT | ≤ 0.2 |
| QSSI | ≤ 0.2 |
| KALA | ≤ 0.2 |
| LYMW | ≤ 0.2 |
| SESF | ≤ 0.2 |
| VFHG | ≤ 0.2 |
| QAVT | 0.296 |
| RWWN | ≤ 0.2 |
| KPRG | ≤ 0.2 |
| PLEC | ≤ 0.2 |
| PPGW | ≤ 0.2 |
| YKVR | ≤ 0.2 |
| PWPP | ≤ 0.2 |
| ARTE | ≤ 0.2 |
| TFAS | ≤ 0.2 |
| EVDR | ≤ 0.2 |
| RTYA | 0.268 |
| DSFY | ≤ 0.2 |
| AMNW | ≤ 0.2 |
| KVLC | ≤ 0.2 |
| MYMA | ≤ 0.2 |
| DYMF | ≤ 0.2 |
